Laboratory results reported in PubChem BioAssay AID485294 (National Center for Advancing Translational Sciences (NCATS), 2010).
Screen size: about 370,000 compounds; about 150 (0.041%) were called active. The inconclusive results got no clear call from the source; some entries with a clear call stand among them for comparison. The call rests on the fitted dose curve; in most records, active means well fitted inhibition curve with a large enough effect; inconclusive means small, poorly fitted or top-dose-only effect; inactive means flat fitted curve, though single readings scatter. Potencies of inconclusive entries are left out as doubtful fits. Peptide text beside a SMILES is read from it. * marks the point of attachment. Boc = CC(C)(C)OC(=O)*; OBn = c1ccc(CO*)cc1
Further: nearly all actives have a fitted effect of over 25% in size.
Potency means the concentration at half of the fitted maximal effect; tags describe the fitted curve by direction and shape.
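Wherever activity change, negative = inhibition is given: 0% = no-compound wells and -100% = no-enzyme wells.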

These compounds were tested against Beta-lactamase (Escherichia coli (strain K12)) (UniProt P00811) (assay: qHTS Inhibitors of AmpC Beta-Lactamase (assay with detergent)). Details: AmpC hydrolysis of nitrocefin, absorbance 480 nm, 0.01% Triton; activity change, negative = inhibition: at 114 µM (top of the series).
Chain of UniProt P00811 (P00811 whole entry, looked up): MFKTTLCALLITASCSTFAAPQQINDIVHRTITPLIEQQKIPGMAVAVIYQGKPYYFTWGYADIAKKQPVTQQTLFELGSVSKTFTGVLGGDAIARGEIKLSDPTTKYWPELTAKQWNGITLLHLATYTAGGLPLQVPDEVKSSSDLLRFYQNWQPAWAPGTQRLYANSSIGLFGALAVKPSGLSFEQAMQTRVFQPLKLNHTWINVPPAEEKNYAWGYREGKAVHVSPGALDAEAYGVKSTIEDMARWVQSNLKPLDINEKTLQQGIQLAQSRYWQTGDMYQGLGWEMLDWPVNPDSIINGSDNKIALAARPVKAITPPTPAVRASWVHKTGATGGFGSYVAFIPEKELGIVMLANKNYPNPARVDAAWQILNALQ
In short: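 AmpC (5.3 nM in the dispensed reagent) in 20 mM phosphate pH 7.0 with 0.01% (detergent screen) or 0.0001% Triton X-100 was preincubated with compounds for 15 min at room temperature. Nitrocefin was then added from an 800 uM solution, and hydrolysis was followed at 480 nm.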
With `COc1ccc(NC(=O)C2C3CCC(C3)C2C(=O)O)cc1OC` (configuration not stated) the Potency was inconclusive [inhibitor, single point]. For `COc1ccc(-c2nnc3n2N=C(c2ccccc2)CS3)cc1OC`, the Potency was inconclusive [inhibitor, full curve, poor fit]. `O=C(NCCCNC(=O)c1ccccc1F)c1ccco1` was tested, and the Potency was inconclusive [inhibitor, partial curve, poor fit]. `O=C(NC1CCCc2ccccc21)c1ccc(=O)[nH]c1` (configuration not stated) was tested, and the Potency was “inactive”. `Cc1ccc(CC(=O)N2CCN(c3ccccn3)CC2)cc1` was tested, and the Potency was inconclusive [inhibitor, full curve, poor fit]. `COC(=O)c1cn(C(=O)c2cccc(Br)c2)c2ccccc12` was tested, and the Potency was inconclusive [inhibitor, full curve, poor fit]. In the case of `O=C1C(Cc2ccccc2)Nc2ncnc(N3CCN(c4ccccc4)CC3)c2N1Cc1ccccc1` (configuration not stated), the Potency is reported as inconclusive [inhibitor, full curve, poor fit]. With `CCOc1cccc(C(=O)NCc2ccccc2)c1` the Potency was “inactive”. For `CCOc1ccc(-n2c(=O)c3c(C)c(C)sc3n(CC(=O)Nc3ccc(CC)cc3)c2=O)cc1`, the Potency was “inactive”. `CC(C)(C)OC(=O)NCC(=O)NCC(=O)OCc1ccccc1` (Boc-Gly-Gly-OBn) was tested, and the Potency was inconclusive [inhibitor, full curve, poor fit]. With `CSc1ccc(CCNC(=O)Cn2ncn3c(cc4ccccc43)c2=O)cc1` the Potency was “inactive”. In the case of `NS(=O)(=O)c1ccc(CCNC(=O)CSc2nc3ccsc3c(=O)n2CC2CCC(C(=O)O)CC2)cc1` (configuration not stated), the Potency is reported as inconclusive [inhibitor, partial curve, poor fit]. In the case of `O=C(Nc1ccc(F)cc1)C1COc2ccccc2O1` (configuration not stated), the Potency is reported as “inactive”. `CCOc1cc(C(=O)NCCCn2ccnc2)cc(OCC)c1OCC` was tested, and the Potency was “inactive”. In the case of `COc1ccc(-c2nc(CCNC(=O)c3c(F)cccc3Cl)cs2)cc1`, the Potency is reported as “inactive”. With `O=C(CCC1COc2ccccc2O1)NCC1COc2ccccc2O1` (configuration not stated) the activity change, negative = inhibition was inconclusive: -20.5% [inhibitor]. `COc1ccc(-c2nc3ccccc3o2)cc1NC(=O)c1ccc(-c2ccc(Br)cc2)o1` was tested, and the Potency was “inactive”. For `COc1cc2c(cc1OC)C(COc1ccc(F)cc1)NCC2` (configuration not stated), the Potency was inconclusive [inhibitor, partial curve, poor fit]. With `CCn1c2ccccc2c2cc(NC(=O)c3cc(C)on3)ccc21` the Potency was “inactive”. In the case of `CCOc1cc(/C=N/NC(=O)CSc2nncn2C)ccc1OCc1cccc(C)c1`, the Potency is reported as inconclusive [inhibitor, partial curve, poor fit]. With `CCOc1ccccc1NC(=O)C(OC(=O)c1ccccc1NS(=O)(=O)c1cccs1)c1ccccc1` (configuration not stated) the Potency was inconclusive [inhibitor, partial curve]. In the case of `COC(=O)C(CCCCNC(=O)c1ccc([N+](=O)[O-])cc1)NC(=O)c1ccc([N+](=O)[O-])cc1` (configuration not stated), the Potency is reported as inconclusive [inhibitor, full curve]. With `C#CCOCCOCCOCCNc1nc(N2CCOCC2)nc(N2CCN(C(=O)[C@H]([C@@H](C)CC)n3cc([C@@H](N)Cc4ccc(O)cc4)nn3)CC2)n1` the Potency was “inactive”. With `C/C(=N\Nc1nc(C)cc(-c2ccccc2)n1)c1ccccc1` the Potency was inconclusive [inhibitor, full curve, poor fit]. `CCOC(=O)c1c(C)c(C(=O)NCc2ccco2)c(C)n1Cc1ccccc1` was tested, and the Potency was inconclusive [inhibitor, single point]. With `COc1ccc(-c2nc3ccccc3n2Cc2ccc(C)cc2)cc1` the Potency was inconclusive [inhibitor, full curve, poor fit]. `Clc1ccc(N=NN2CCOCC2)cc1` was tested, and the Potency was inconclusive [inhibitor, full curve, poor fit]. In the case of `CSCCC(NC(=O)c1ccc(Cl)cc1Cl)C(=O)N(C)Cc1nc2ccccc2c(=O)[nH]1` (configuration not stated), the Potency is reported as inconclusive [inhibitor, full curve, poor fit]. For `COc1cccc(NC(=O)CN(C)C(=O)CN2C(=O)NC(C)(c3ccc(C)cc3)C2=O)c1` (configuration not stated), the Potency was inconclusive [inhibitor, full curve]. With `CCSc1nc2c([nH]c3ccccc32)c(=O)n1-c1cccc(OC)c1` the Potency was “inactive”. For `COc1ccccc1-n1c(CNC(=O)c2cccs2)n[nH]c1=S`, the Potency was inconclusive [inhibitor, single point]. `Cc1ccc(C)c(NC(=O)CSc2nnc(-c3ccccc3)o2)c1` was tested, and the Potency was inconclusive [inhibitor, single point]. With `COc1ccc(-c2noc(N3CCC(C(=O)NCCCN4CCCC(C)C4)CC3)n2)cc1` (configuration not stated) the Potency was inconclusive [inhibitor, partial curve]. `Cc1nc2c(C)cccc2cc1C(=O)N/N=C/c1ccc(N(C)C)cc1` was tested, and the Potency was inconclusive [inhibitor, full curve, poor fit]. `CCC(C)Sc1nc2c(c(=O)[nH]1)C(c1cccs1)C1=C(CCCC1=O)N2` (configuration not stated) was tested, and the Potency was “inactive”. For `O=C(O)CCSc1nnnn1-c1ccccc1`, the Potency was inconclusive [inhibitor, partial curve, poor fit]. `C(=C\c1nccc2c1[nH]c1ccccc12)/c1ccccc1` was tested, and the Potency was inconclusive [inhibitor, full curve, poor fit]. `Cc1[nH]c2ccccc2c1C(O)c1ccncc1` (configuration not stated) was tested, and the Potency was “inactive”. In the case of `Cc1ccc(-n2[nH]c(C)c(CCC#N)c2=O)cc1`, the Potency is reported as inconclusive [inhibitor, full curve]. In the case of `COCCNC(=O)COc1ccc(Nc2ccccc2)cc1`, the Potency is reported as inconclusive [inhibitor, single point]. `O=C(NCCOc1ccccc1)c1cc2ccccc2o1` was tested, and the Potency was “inactive”. In the case of `COc1ccccc1-n1c(-c2ccccc2)nc2ccccc2c1=O`, the Potency is reported as inconclusive [inhibitor, full curve, poor fit]. With `CCCCCC(=O)Nc1nc(C)c(-c2csc(Nc3cc(Cl)ccc3C)n2)s1` the Potency was inconclusive [inhibitor, single point]. For `O=C(CNC(=O)c1ccco1)OCC(=O)c1ccc2ccccc2c1`, the Potency was inconclusive [inhibitor, single point]. In the case of `Cc1nc2ccc(N3CCN(C)CC3)cc2nc1C`, the Potency is reported as inconclusive [inhibitor, full curve]. `O=C(Oc1ccccc1-c1nnco1)c1ccc(Cl)cc1` was tested, and the Potency was inconclusive [inhibitor, full curve]. With `COc1ccc(NC(=O)CSCC(=O)NCc2ccco2)cc1` the Potency was inconclusive [inhibitor, partial curve]. For `CCCCCc1c(O)nc(SCC(=O)NCC2CCCO2)[nH]c1=O` (configuration not stated), the Potency was “inactive”. In the case of `C#CCNC(=O)C1=C[C@@H](C2CCCCC2)C[C@@H](OCc2ccc(CO)cc2)O1`, the Potency is reported as “inactive”. For `O=C(COC(=O)CCSc1ccc(Cl)cc1)Nc1ccc(F)cc1`, the Potency was inconclusive [inhibitor, full curve, poor fit]. With `CCOC(=O)C1CN(S(=O)(=O)c2ccc(OC)cc2)c2cc(CC(=O)OC)ccc2O1` (configuration not stated) the Potency was inconclusive [inhibitor, single point]. `CC(=O)N1CCC(C(=O)Nc2ccccc2)(N(Cc2ccccc2)C(=O)c2cccnc2)CC1` was tested, and the Potency was inconclusive [inhibitor, partial curve, poor fit]. With `O=C(Cc1ccc([N+](=O)[O-])cc1)Nc1cccnc1` the Potency was inconclusive [inhibitor, single point]. For `CCc1ccc(S(=O)(=O)/N=C2/C=C(Sc3ncn[nH]3)C(=O)c3ccccc32)cc1`, the Potency was “inactive”. `C=CCN1CC(c2nc3ccccc3n2CCOc2ccccc2)CC1=O` (configuration not stated) was tested, and the Potency was “inactive”. `Cc1cccc(OCCCC(=O)Nc2nnc(C3CCCO3)s2)c1C` (configuration not stated) was tested, and the Potency was inconclusive [inhibitor, full curve]. In the case of `CCOc1nc(NC(=O)NS(=O)(=O)Oc2cccc(Cl)c2)nc(-c2ccccc2)n1`, the Potency is reported as inconclusive [inhibitor, full curve, poor fit]. In the case of `CS(=O)(=O)N(CC(=O)Nc1ccc(CC#N)cc1)c1ccc(C23CC4CC(CC(C4)C2)C3)cc1`, the Potency is reported as inconclusive [inhibitor, full curve]. In the case of `COc1ccc(C2=NN3C(=O)c4c(ccc(OC)c4OC)C3C2)cc1` (configuration not stated), the Potency is reported as “inactive”. `Cc1ccc(NC(=O)CCSc2nnc(-c3ccco3)o2)cc1` was tested, and the Potency was inconclusive [inhibitor, full curve, poor fit]. In the case of `COc1cc(/C=N/NC(=O)CCn2nc(C)cc2C)ccc1O`, the Potency is reported as “inactive”. In the case of `CC(=O)N1CCN=C1SCc1ccc(Cl)cc1`, the Potency is reported as inconclusive [inhibitor, partial curve]. With `Cc1ccc(C)c(NC(=O)c2cnccn2)c1` the Potency was inconclusive [inhibitor, full curve, poor fit]. In the case of `CCc1ccccc1NC(=O)N1C[C@H]2C[C@@H](C1)c1cccc(=O)n1C2`, the Potency is reported as inconclusive [inhibitor, full curve]. In the case of `CN1C(=O)[C@H]2[C@@H](C3CC3)N3C(=O)CN(Cc4ccc(-c5ccccc5)cc4)C(=O)[C@@]3(C)[C@H]2C1=O`, the Potency is reported as inconclusive [inhibitor, partial curve, poor fit]. With `Nc1ccc(C(=O)n2c3ccccc3c3ccccc32)cc1` the Potency was inconclusive [inhibitor, partial curve]. In the case of `CCC(=O)N1CCN=C1SCc1ccc(F)cc1`, the Potency is reported as inconclusive [inhibitor, full curve, poor fit].
